Data on 120 sequences can be found in the supplement of paper PMC10126150.

In the data set the test system is ATP. The data set is described as follows: switch fluorescence ratio, 500 uM ATP over buffer (Cy3 cluster intensity, sum of 5 cycles each) (fold (ratio)); higher = stronger signal-on switching upon ATP binding; sequences stand for … in TCGTCGGCAGCGTCAGATGTGTATAAGAGACAGTTTTTTTTTTTTTTTTTTTTTTTTT…TC. Conditions: aptamer strand: ATP DNA aptamer (quencher-CACCTGGGGGAGTATTGCGGAGGAAGG + anchor), 100 nM annealed; ATP concentration: 500 uM; one replicate. The method in brief:
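Cy3-labelled switching-strand clusters on a modified Illumina MiSeq flow-cell were annealed to 100 nM quencher-labelled ATP aptamer, imaged in selection buffer, then imaged after 15 min with 500 uM ATP at 22 °C. Five buffer/ATP cycles ran, with NaOH stripping and re-annealing between them. The fluorescence ratio is summed target-cycle over summed buffer-cycle Cy3 intensity per cluster, averaged per switch-domain sequence. Clusters outside 100-1000 RFU were excluded.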

Values marked as one replicate rest on one cluster of the flow cell; about a third of the high ones do not repeat.
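Also: ATP exposure 15 min at 22 °C before imaging.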

For AACGCCTTTG, the switch fluorescence ratio is 1.05. Regarding AATTGAGTTC, the switch fluorescence ratio was found to be 1.01. On to AAACTATAAG, for which the switch fluorescence ratio is 1.01. GTGTGTTACA: the switch fluorescence ratio was 0.967.

For the sequence CATCTCTAGA, the switch fluorescence ratio came to 1.05.

For CCTAGTGTGG, the switch fluorescence ratio came out at 1.01. On to CTGGGGCCGC, for which the switch fluorescence ratio amounted to 0.995. On to ATAGTCGTAG, for which the switch fluorescence ratio is 1.02. On to AGCACTGAAT, for which the switch fluorescence ratio came out at 1.05.

On to CACCAACCCG, for which the switch fluorescence ratio amounted to 1.17. Next, GCGAGGATG: 1.01; GATGCATGAG: 1.05. Turning to GAATTTAGCT, the switch fluorescence ratio was found to be 1.05. The same measure for ATCAAACCTC: 1.12; for GATAAAATGG: 1.03; for AGGGACCCAC: 1.21.

On to ACCCCGAAGG, for which the switch fluorescence ratio was found to be 1.08. The same measure for GCTGCGGTGG: 1.03; for TGTGGCCCGA: 0.97. For GTTCGCCTTA, the switch fluorescence ratio worked out at 1.03. The same measure for TGACCGGGTC: 1.01. Turning to CGAACTTAAG, the switch fluorescence ratio is 0.94. The same measure for CCCTCCGAGT: 3.3; for TGCATGTAGC: 1.03. On to TCCGGTGGT, for which the switch fluorescence ratio worked out at 0.992. As to CATATTTGTG, the switch fluorescence ratio was found to be 1.02. Next, TAGAACGAT: 0.994. Consider TACTGACTTT, for which the switch fluorescence ratio is 1.07. Next, TACAATAGCG: 1.07; GTCTGTTTTT: 0.964; TGCAGGTACT: 1.11. The same measure for AGTGCGACAA: 1.09; for TCATCACAGT: 0.998.

Take ACACGAGTTA: the switch fluorescence ratio is 1.02. Next, CACCTGGCCC: 1.02; TTCATTCTGG: 0.996. Consider TATCTAATGG, for which the switch fluorescence ratio was 1.01.

As for TGCTAATT, the switch fluorescence ratio amounted to 0.991. For CGCGTGATGA, the switch fluorescence ratio turned out to be 0.959. Take TCAGGGTCGT: the switch fluorescence ratio turned out to be 0.973.

Regarding TGCCTTCGGT, the switch fluorescence ratio came to 1. Turning to GTTTTGTGCT, the switch fluorescence ratio came out at 0.947. Take GCTCAGGATC: the switch fluorescence ratio is 1.03. On to ATATAATCCC, for which the switch fluorescence ratio stood at 1.05. Next, TATCGTACCT: 1.26; CGGTTAGTTG: 0.958; AATACTCCGA: 1.9. Consider ATCCTGTATA, for which the switch fluorescence ratio was 0.988. Next, GACGGGCACT: 1.05. With CTTAATTCAG, the switch fluorescence ratio was 0.992.

For the sequence CATCTATT, the switch fluorescence ratio is 0.966. For the sequence GGTTACTATA, the switch fluorescence ratio was 1.01. CGATATGTAA: the switch fluorescence ratio amounted to 0.984.

TCGGTATGGT: the switch fluorescence ratio was 1.01. The same measure for GCTGCAGTAA: 0.996. The same measure for TATTGGTGGC: 1.02; for CCGCGTCAAT: 3.9.

As to TAAGAAGGCC, the switch fluorescence ratio was determined as 0.934.

Take CGTGTTCATG: the switch fluorescence ratio stood at 1.02.

As for GATAGGGAAG, the switch fluorescence ratio stood at 0.976. CGTGATTATG: the switch fluorescence ratio was 1.05. Consider CTTTGTGTCT, for which the switch fluorescence ratio amounted to 1.05. The same measure for ACCCGTCTCT: 1.01. Next, AAAATTGGCA: 1.02; GCCTGGGCCA: 0.984. As for CTCGCTTTGG, the switch fluorescence ratio worked out at 1.06.

As to GCTGCAATTG, the switch fluorescence ratio is 1.23. Next, TCTGAGAGGT: 1; TAGGGTGCCT: 0.972. As for CCTGTCTTGG, the switch fluorescence ratio is 0.97. Regarding AGACACTCAT, the switch fluorescence ratio was 1.04.

Consider GCCCCCTATT, for which the switch fluorescence ratio was found to be 1.05. On to CCCAGTCCTC, for which the switch fluorescence ratio is 1.1.

In the case of TTGGCCGATT, the switch fluorescence ratio was 1.02. Next, TCCAGTTGGA: 1.02.

On to ATCCTGGAGG, for which the switch fluorescence ratio was found to be 0.984.

As to TGAAACGCCC, the switch fluorescence ratio was 1.15. The same measure for AGAAGCGTAT: 1.06; for CCTAGGGGTA: 1.05. The same measure for CCCCTTGAGT: 1.01; for AATCCTTACA: 0.981; for GAGTAACTTT: 0.996. The same measure for CAGGATTTCC: 0.979. On to TGCTGAAGG, for which the switch fluorescence ratio came out at 0.995. The same measure for AAAGGGAAGC: 0.959; for TAAAAGCCAA: 1.13; for TATTGTGACG: 1.15. Consider GCTTTTCAGG, for which the switch fluorescence ratio was 1.03.

Take TCTGGGGGCG: the switch fluorescence ratio is 0.931. Next, CGCTCCATGT: 1.08. Next, GAATATTAT: 1.07; CTGGGACATA: 0.996. The same measure for GTATGTCGAA: 1; for GGTCCAGGTG: 1.19. Regarding GTAAATTGCT, the switch fluorescence ratio was determined as 1.03. The same measure for TGAAGTCTAG: 0.976.

For the sequence TGCGGATGTA, the switch fluorescence ratio was 0.977. Next, TCGCTCAAAA: 0.993. As for GTGGGTTTAG, the switch fluorescence ratio worked out at 0.994. CTGTTAGACT: the switch fluorescence ratio worked out at 0.998. Next, GTAGAGGGAC: 1.02. As for ACCTTCGGTC, the switch fluorescence ratio turned out to be 1.07. Next, GATTCTTGTA: 1.01; CGATAGTGAT: 0.977.

Take TGGGAACAAT: the switch fluorescence ratio stood at 0.97. The same measure for GCCGAACTGG: 0.991.

Consider TATGTCGACT, for which the switch fluorescence ratio is 1.03.

Consider GGACTAGCTG, for which the switch fluorescence ratio amounted to 0.948. On to AGTTTCACCG, for which the switch fluorescence ratio stood at 1.04.

In the case of ACCTTATCCG, the switch fluorescence ratio is 1.59. For the sequence TTGCTCCGGA, the switch fluorescence ratio turned out to be 1.75.

As to TGATATTGTC, the switch fluorescence ratio stood at 1.02. In the case of TAATGCTAAC, the switch fluorescence ratio was found to be 1.05. The same measure for TTTTTTGTA: 1.03; for TCGAGGCTTC: 1.07; for ACCGCGGAA: 1.07. Regarding TGAAAATCGC, the switch fluorescence ratio was 1.01. Consider TAGAGGGTA, for which the switch fluorescence ratio turned out to be 0.934.

Consider AGAAACCCGC, for which the switch fluorescence ratio was found to be 1.04. Regarding GATTTCAAG, the switch fluorescence ratio is 0.961.
